Results from the supplement of paper PMC4604168 (melanoma cell lines).
The list shows a part of the results. Repeats are few or missing, and single values can be far off.

Experiments:
Assay in all cases: cell count relative to DMSO control; melanoma cells; higher = more viable cells
Details in all cases: library dose: low library concentration; 72 h
MZ2-MEL = test system: MZ2-MEL
MeWo = test system: MeWo
RPMI7951 = test system: RPMI7951
RVH-421 = test system: RVH-421
SkMel28 = test system: SkMel28
SkMel2 = test system: SkMel2
SkMel30 = test system: SkMel30
SkMel5 = test system: SkMel5
UACC257 = test system: UACC257
UACC62 = test system: UACC62
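Note: cell number obtained by counting DAPI-stained nuclei in high-throughput microscope images with image analysis software, screen run in 1,536-well plates.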

SMILES	cell count (MZ2-MEL)	cell count (MeWo)	cell count (RPMI7951)	cell count (RVH-421)	cell count (SkMel28)	cell count (SkMel2)	cell count (SkMel30)	cell count (SkMel5)	cell count (UACC257)	cell count (UACC62)
Cc1cn(-c2cc(NC(=O)c3ccc(C)c(Nc4nccc(-c5cccnc5)n4)c3)cc(C(F)(F)F)c2)cn1 [nilotinib] + COc1ccc(-c2ccc3c(N4CCOCC4)nc(N4C[C@@H](C)O[C@@H](C)C4)nc3n2)cc1CO [KU0063794] (first compound 0.2 µM, partner dose 0.02 µM)	90.2%	107%	95.7%	110%	91.4%	98.4%	91.8%	109%	72.4%	85.6%
Cn1c(=O)n(-c2ccc(C(C)(C)C#N)cc2)c2c3cc(-c4cnc5ccccc5c4)ccc3ncc21 + COc1cc2c(Oc3ccc4[nH]c(C)cc4c3F)ncnc2cc1OCCCN1CCCC1 [cediranib] (first compound 0.004 µM, partner dose 0.4 µM)	97%	90.6%	86.3%	95.4%	82.3%	84.5%	105%	115%	88.1%	80.6%
CC(C)C[C@H](NC(=O)[C@H](Cc1ccccc1)NC(=O)c1cnccn1)B(O)O [Bortezomib] + CN(NC(=O)CC(=O)NN(C)C(=S)c1ccccc1)C(=S)c1ccccc1 [STA4783] (first compound 0.001 µM, partner dose 0.006 µM)	75.2%	76%	85.9%	64.6%	97.5%	89.4%	109%	104%	64%	85.1%
Cc1cn(-c2cc(NC(=O)c3ccc(C)c(Nc4nccc(-c5cccnc5)n4)c3)cc(C(F)(F)F)c2)cn1 [nilotinib] + Cc1cc(N2CCOCC2)cc2[nH]c(-c3c(NC[C@@H](O)c4cccc(Cl)c4)cc[nH]c3=O)nc12 [BMS536924] (first compound 0.2 µM, partner dose 0.2 µM)	98.3%	89.8%	96%	93%	106%	84.9%	72.2%	105%	86.6%	98.5%
Cc1cn(-c2cc(NC(=O)c3ccc(C)c(Nc4nccc(-c5cccnc5)n4)c3)cc(C(F)(F)F)c2)cn1 [nilotinib] + O=C(Nc1cccc(Cl)c1)Nc1ncc(CCNc2ncnc3ccsc23)s1 [SNS314] (first compound 0.2 µM, partner dose 0.0008 µM)	88.4%	98.6%	71.4%	98.7%	94.7%	95.7%	78.9%	106%	107%	82.4%
COc1ccc(C2=N[C@@H](c3ccc(Cl)cc3)[C@@H](c3ccc(Cl)cc3)N2C(=O)N2CCNC(=O)C2)c(OC(C)C)c1 [Nutlin-3] + CC(C)(C)c1cnc(CSc2cnc(NC(=O)C3CCNCC3)s2)o1 [SNS-032] (first compound 0.1 µM, partner dose 0.01 µM)	97%	95.3%	97.8%	79.1%	78.9%	88.5%	105%	96.8%	62.8%	54.3%
CC(C)C[C@H](NC(=O)[C@H](Cc1ccccc1)NC(=O)c1cnccn1)B(O)O [Bortezomib] + CC(C)(C)c1cnc(CSc2cnc(NC(=O)C3CCNCC3)s2)o1 [SNS-032] (first compound 0.001 µM, partner dose 0.01 µM)	70.6%	90%	53.4%	74.5%	91.7%	97.5%	105%	116%	90%	86.7%
Cc1cn(-c2cc(NC(=O)c3ccc(C)c(Nc4nccc(-c5cccnc5)n4)c3)cc(C(F)(F)F)c2)cn1 [nilotinib] + OCCn1cc(-c2cnc3nnn(Cc4ccc5ncccc5c4)c3n2)cn1 [PF04217903] (first compound 0.2 µM, partner dose 1 µM)	112%	94.3%	91.2%	118%	109%	103%	91.2%	93.9%	112%	120%
CC(C)C[C@H](NC(=O)[C@H](Cc1ccccc1)NC(=O)c1cnccn1)B(O)O [Bortezomib] + COc1ccc(-c2ccc3c(N4CCOCC4)nc(N4C[C@@H](C)O[C@@H](C)C4)nc3n2)cc1CO [KU0063794] (first compound 0.001 µM, partner dose 0.02 µM)	62.1%	89.1%	58.9%	47.7%	86.6%	97.8%	80.3%	87.9%	65.8%	69%
COc1ccc(C2=N[C@@H](c3ccc(Cl)cc3)[C@@H](c3ccc(Cl)cc3)N2C(=O)N2CCNC(=O)C2)c(OC(C)C)c1 [Nutlin-3] + O=C1NC(=O)/C(=C/c2ccc(-c3ccc(F)cc3O)o2)S1 [AS252424] (first compound 0.1 µM, partner dose 1 µM)	97.3%	76.1%	96.4%	73.7%	73.7%	80.9%	90.4%	94.4%	84.9%	94.1%
Cc1cn(-c2cc(NC(=O)c3ccc(C)c(Nc4nccc(-c5cccnc5)n4)c3)cc(C(F)(F)F)c2)cn1 [nilotinib] + O=S(=O)(c1ccccc1)N(CC(F)(F)F)c1ccc(C(O)(C(F)(F)F)C(F)(F)F)cc1 [T0901317] (first compound 0.2 µM, partner dose 1.4 µM)	99.4%	85.5%	102%	82.1%	95.3%	94.1%	71.1%	90.7%	80.5%	85.1%
COc1ccc(C2=N[C@@H](c3ccc(Cl)cc3)[C@@H](c3ccc(Cl)cc3)N2C(=O)N2CCNC(=O)C2)c(OC(C)C)c1 [Nutlin-3] + CN(NC(=O)CC(=O)NN(C)C(=S)c1ccccc1)C(=S)c1ccccc1 [STA4783] (first compound 0.1 µM, partner dose 0.006 µM)	96.4%	82.3%	86.7%	75.4%	76.2%	87.5%	103%	95.2%	73.9%	75.4%
Cc1cc(Nc2cc(N3CCN(C)CC3)nc(/C=C/c3ccccc3)n2)n[nH]1 + COC(=O)c1sccc1S(=O)(=O)Nc1ccc(Nc2ccccc2)cc1OC [GSK0660] (first compound 0.04 µM, partner dose 1 µM)	104%	103%	95.8%	72.5%	90.1%	103%	98.8%	113%	88.2%	92.9%
COc1ccc(C2=N[C@@H](c3ccc(Cl)cc3)[C@@H](c3ccc(Cl)cc3)N2C(=O)N2CCNC(=O)C2)c(OC(C)C)c1 [Nutlin-3] + COc1ccc(COc2ccc(Cc3cnc(N)nc3N)cc2OC)cc1 [GW2580] (first compound 0.1 µM, partner dose 1 µM)	96.4%	98.3%	109%	71.3%	92.5%	97.4%	76.3%	89.6%	105%	91.4%
CC(C)C[C@H](NC(=O)[C@H](Cc1ccccc1)NC(=O)c1cnccn1)B(O)O [Bortezomib] + Oc1nc(-c2ccc(C(F)(F)F)cc2)nc2c1CSCC2 [XAV939] (first compound 0.001 µM, partner dose 2 µM)	99.5%	111%	85.2%	76.9%	92.9%	106%	105%	94.2%	104%	93.9%
Cc1cn(-c2cc(NC(=O)c3ccc(C)c(Nc4nccc(-c5cccnc5)n4)c3)cc(C(F)(F)F)c2)cn1 [nilotinib] + O=c1cc(-c2cccc3c2Sc2ccccc2S3)oc(N2CCOCC2)c1 [KU55933] (first compound 0.2 µM, partner dose 1 µM)	102%	104%	82.4%	115%	98.9%	98.3%	108%	93.5%	91.9%	79.6%
COc1ccc(C2=N[C@@H](c3ccc(Cl)cc3)[C@@H](c3ccc(Cl)cc3)N2C(=O)N2CCNC(=O)C2)c(OC(C)C)c1 [Nutlin-3] + Cc1ccc(NC(=O)c2cccc(N(C)C)c2)cc1NC(=O)c1ccc(O)cc1 [ZM336372] (first compound 0.1 µM, partner dose 2 µM)	82.3%	102%	92.9%	91.3%	94.9%	95.9%	107%	95.9%	80.8%	81.7%
Cc1cc(Nc2cc(N3CCN(C)CC3)nc(/C=C/c3ccccc3)n2)n[nH]1 + Cn1cc(/C=C2\C(=O)Nc3cccnc32)c2ccccc21 [GW441756] (first compound 0.04 µM, partner dose 0.4 µM)	97.2%	96.6%	93.7%	84.3%	91.7%	103%	85.2%	81.1%	86.8%	107%
CC(C)C[C@H](NC(=O)[C@H](Cc1ccccc1)NC(=O)c1cnccn1)B(O)O [Bortezomib] + NC(=O)Nc1cc(-c2cccc(F)c2)sc1C(=O)N[C@H]1CCCNC1 [AZD7762] (first compound 0.001 µM, partner dose 0.02 µM)	103%	97.3%	67.8%	75.1%	102%	103%	113%	109%	82.7%	101%
Cc1cn(-c2cc(NC(=O)c3ccc(C)c(Nc4nccc(-c5cccnc5)n4)c3)cc(C(F)(F)F)c2)cn1 [nilotinib] + Cn1cncc1[C@@](N)(c1ccc(Cl)cc1)c1ccc2c(c1)c(-c1cccc(Cl)c1)cc(=O)n2C [tipifarnib] (first compound 0.2 µM, partner dose 0.01 µM)	104%	91.9%	88.3%	82.6%	83.8%	75.6%	86.9%	104%	73.8%	83.3%
COc1ccc(C2=N[C@@H](c3ccc(Cl)cc3)[C@@H](c3ccc(Cl)cc3)N2C(=O)N2CCNC(=O)C2)c(OC(C)C)c1 [Nutlin-3] + COc1ccc(-c2ccc3c(N4CCOCC4)nc(N4C[C@@H](C)O[C@@H](C)C4)nc3n2)cc1CO [KU0063794] (first compound 0.1 µM, partner dose 0.02 µM)	94.3%	104%	88.1%	85.1%	94.4%	86%	72.2%	92.5%	71.2%	83.8%
